Out of some 410,000 compounds screened, about 7,200 (1.8%) were called active. This list was built around the results that the source calls inconclusive (neither active nor inactive); the mix of calls is not that of the screen. Calls come from the whole dose curve; as a rule, active = well fitted activation curve with a large enough effect; inconclusive = small, poorly fitted or top-dose-only effect, or another doubt; inactive = no such curve, though single readings can be large or run the other way. Potencies of inconclusive entries are left out as doubtful fits.
Assay: qHTS of TDP-43 Inhibitors; note: nearly all actives have a fitted effect of over 50% in size; for growth rescue (activation): % of control where 0% means no effect
Conditions: TDP-43 expressing yeast growth rescue, BacTiter-Glo, 24 h; growth rescue (activation): at 46.1 µM (top of the series) unless noted
Summary of the method: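 Yeast cells expressing TDP-43 under galactose induction are exposed to compounds for 24 hr at 30 deg C. BacTiter-Glo luminescence measures growth, so protective compounds score as activators.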
In the case of `CCCc1cc(C(=O)Nc2ccc(C(C)=O)cc2)no1`, the Potency is reported as inconclusive [activator, full curve].
For `CNc1sc(C(=O)c2ccccc2F)c(N)c1-c1nc2ccccc2s1`, the Potency was inconclusive [activator, partial curve].
In the case of `Cc1cc(C(=O)COC(=O)c2ccc[nH]c2=O)c(C)n1-c1ccccc1`, the Potency is reported as inconclusive [activator, single point].
For `Cc1cc(C)cc(Nc2nc3cc(Cl)c(Cl)cc3nc2-n2nc(C)cc2C)c1`, the Potency was “inactive”.
In the case of `CC1CCc2nc(NC(=O)CN3CCN(c4ccc(F)cc4)CC3)sc2C1` (stereo not given), the Potency is reported as active: 15.8 µM.
With `O=C(C1CCC(Cn2c(=O)c3sccc3n(Cc3ccc(F)cc3)c2=O)CC1)N1CCOCC1` (stereo not given) the Potency was “inactive”.
For `CCCCNc1c(-c2ccc(-c3ccc(C(C)=O)cc3)c(OC)c2)nc2cc(C)ccn12`, the Potency was inconclusive [activator, partial curve].
With `O=C(Cc1ccccc1F)c1ccc(O)cc1O` the growth rescue (activation) was inactive: 20.7% [at 9.22 µM].
In the case of `COCCC(C(=O)Oc1c(C(C)(C)C)cc(C)cc1C(C)(C)C)c1ccccc1` (stereo not given), the Potency is reported as “inactive”.
In the case of `Cc1ccc(OCCCC(=O)Nc2cc(Cl)ccc2-n2cncn2)cc1`, the Potency is reported as inconclusive [activator, partial curve, poor fit].
With `Cc1ccc(C(=O)c2c3ccccc3[n+]([O-])n2[C@@H](C)C(N)=O)cc1` the Potency was inconclusive [activator, single point].
For `Cc1ccccc1NC(=O)CSc1nnc(NC(=O)c2ccco2)s1`, the Potency was inconclusive [activator, partial curve, poor fit].
In the case of `Clc1ccc(Cc2noc(CN3CCN(c4ccccc4)CC3)n2)c(Cl)c1`, the Potency is reported as inconclusive [activator, single point].
In the case of `CN(C)CCNC(=O)CCCNC(=O)Cn1cnc2sc3c(c2c1=O)CCCC3`, the Potency is reported as inconclusive [activator, full curve, poor fit].
With `COCCCNc1nc2ccccc2nc1NS(=O)(=O)c1ccc(OC)cc1` the Potency was inconclusive [activator, partial curve].
With `CC(OC(=O)C1CC1)C(=O)Nc1cc(C(F)(F)F)ccc1Cl` (stereo not given) the Potency was inconclusive [activator, partial curve].
In the case of `Cc1ccc(C(=O)N(Cc2nnc(-c3ccc(Cl)cc3)o2)C2CC2)o1`, the Potency is reported as inconclusive [activator, partial curve].
For `CCCOc1ccc(C2NC(=S)NC(c3ccccc3)=C2C(=O)Nc2ccc(C)cc2)cc1OC` (stereo not given), the Potency was inconclusive [activator, partial curve].
With `COc1ccccc1C(c1nnnn1Cc1ccccc1)N1CCN(c2nc3ccccc3s2)CC1` (stereo not given) the Potency was inconclusive [activator, single point].
In the case of `COc1ccc(-c2nc3c4ccccc4ccn3c2Cc2ccc(C)cc2)cc1OC`, the Potency is reported as active: 10 µM.
In the case of `Cc1cc(N(CCO)Cc2ccccc2)n2nc(-c3ccc(C(C)(C)C)cc3)nc2n1`, the Potency is reported as inconclusive [activator, partial curve, poor fit].
In the case of `O=C(CNC(=O)OCc1ccccc1)Oc1cc2oc(=O)cc(-c3ccccc3)c2cc1Cl`, the Potency is reported as active: 7.08 µM.
For `CC(=O)Oc1ccc(CN2C(=O)C(CCc3ccccc3)ON=C2c2cnccn2)cc1` (stereo not given), the Potency was active: 14.1 µM.
For `CC1c2cc3c(cc2CCN1C(=O)c1cccc(F)c1)OCCCO3` (stereo not given), the Potency was inconclusive [activator, single point].
With `C=CCn1c2ccccc2c2nnc(SCC(=O)OC)nc21` the Potency was inconclusive [activator, single point].
For `Cc1nc2nc(SCC(=O)Nc3ccccc3Cl)nn2c(C)c1Cc1ccccc1`, the Potency was inconclusive [activator, single point].
In the case of `COc1cc2c(cc1OC)C(COc1ccc(F)cc1)N(C(=O)c1cccc(F)c1)CC2` (stereo not given), the Potency is reported as active: 35.5 µM.
With `COc1ccc(-c2cnc(C)o2)cc1S(=O)(=O)Nc1ccc(F)cc1F` the Potency was inconclusive [activator, single point].
For `CC(C)(C)c1csc(NNC(=O)c2ccc(Br)cc2)n1`, the Potency was inconclusive [activator, partial curve].
In the case of `CCn1c(/C=C/c2ccccc2C)nc2ccccc2c1=O`, the Potency is reported as “inactive”.
With `COc1ccc([C@@H]2C[C@H]3[C@@H](CN2S(=O)(=O)c2ccccc2)C(=O)C[C@@H](c2ccc(C)cc2)N3S(=O)(=O)c2ccc(C)cc2)cc1` the Potency was inconclusive [activator, partial curve, poor fit].
With `Cn1ccnc1C(O)c1cc(C(C)(C)C)c(O)c(C(C)(C)C)c1` (stereo not given) the Potency was inconclusive [activator, single point].
With `Cc1ccc(NS(=O)(=O)c2ccc(C(=O)N3CCCN(C)CC3)cc2)cc1` the Potency was inconclusive [activator, partial curve, poor fit].
In the case of `CCCCNc1ncnc2c1cnn2-c1ccc(C)cc1C`, the Potency is reported as active: 12.6 µM.
With `COc1ccccc1CNC(=O)C1COc2ccccc2O1` (stereo not given) the Potency was inconclusive [activator, partial curve, poor fit].
In the case of `COc1ccc(Cc2nc(C(=O)NCc3ccccc3OC)cs2)cc1`, the Potency is reported as inconclusive [activator, partial curve].
For `O=C(CSc1ncnc2ccccc12)NCC(=O)c1ccccc1`, the Potency was active: 12.6 µM.
With `COc1ccc(-c2cc(-c3ccccc3O)[nH]n2)cc1` the Potency was inconclusive [activator, single point].
With `COc1ccc(N(Cc2nnc3n2CCCCC3)C(=O)Nc2cccc(C)c2)cc1Cl` the Potency was inconclusive [activator, partial curve, poor fit].
With `CC(=O)N(Cc1cccc(Br)c1)c1ccc(N2CCOCC2)c(Cl)c1` the Potency was inconclusive [activator, single point].
With `Cc1cccc(C)c1NC(=O)C(c1ccccc1)n1c(=O)c(-c2cc3ccccc3[nH]2)nc2ccccc21` (stereo not given) the Potency was inconclusive [activator, full curve].
In the case of `Cc1c(C(=O)Nc2cccc(C(F)(F)F)c2)oc2ccc(S(=O)(=O)N3CCOCC3)cc12`, the Potency is reported as “inactive”.
With `COc1cccc(C(=O)OCC(=O)Nc2nnc(-c3ccccc3)o2)c1` the Potency was inconclusive [activator, partial curve].
For `CCCc1noc(-c2ccc(NCc3ccc(C)cc3)c([N+](=O)[O-])c2)n1`, the Potency was “inactive”.
With `Cc1ccc(NC(=O)Cn2c(=O)n(Cc3ccc4c(c3)OCO4)c(=O)c3ccccc32)cc1` the Potency was inconclusive [activator, partial curve, poor fit].
With `Cc1ccc(C(=O)c2cn(Cc3ccccc3C)c3nc(C)ccc3c2=O)cc1` the Potency was inconclusive [activator, partial curve].
In the case of `CCCn1c(=O)c2c(nc3n2CCCN3CCc2ccc(OC)c(OC)c2)n(C)c1=O`, the Potency is reported as inconclusive [activator, partial curve].
For `COc1ccc(C2CC(=O)N(CC(=O)Nc3ccc(C)c(Cl)c3)c3ccccc3S2)cc1OC` (stereo not given), the Potency was “inactive”.
For `CC(C)n1c(=O)c2ccccc2n1Cc1cn(C2CCCC2)nn1`, the Potency was “inactive”.
For `CCOC(=O)Nc1cccc(Cl)c1C`, the Potency was inconclusive [activator, single point].
With `O=C(CSc1ccc(-c2ccccn2)nn1)NCc1ccc(F)cc1` the Potency was active: 15.8 µM.
With `O=C1CCSC2=C1SCc1sccc12` the Potency was inconclusive [activator, partial curve].
In the case of `Nc1nc(CCl)nc(Nc2ccc3ccccc3c2)n1`, the Potency is reported as inconclusive [activator, single point].
In the case of `Cc1cccc(CSC2=NN3CCCC(=O)N=C3S2)c1`, the Potency is reported as inconclusive [activator, single point].
For `COC(=O)[C@@]12C[C@@H](CC(=O)N3CCCCC3)C(=O)N(Cc3ccccc3)C1=CCC(C)(C)C2`, the Potency was inconclusive [activator, full curve, poor fit].
For `COc1ccc(OCCN(C)Cc2ccccc2)cc1`, the Potency was inconclusive [activator, full curve, poor fit].
With `Cc1ccc(C(=O)N2CCC(C)CC2)cc1S(=O)(=O)N1CCCCC1` the Potency was inconclusive [activator, partial curve, poor fit].
With `Cc1ccc(Nc2ncnc3c2cnn3-c2ccccc2)c(C)c1` the Potency was active: 35.5 µM.
For `O=S(=O)(c1ccc(Cl)nc1)N(Cc1ccccc1)Cc1ccccc1`, the Potency was inconclusive [activator, partial curve, poor fit].
For `O=C(Nc1ccccc1N1CCOCC1)c1ccccc1NS(=O)(=O)c1ccc(F)c(F)c1`, the Potency was inconclusive [activator, single point].
In the case of `Cc1c2cnn(CC(=O)N3CCN(c4ccccc4)CC3)c(=O)c2c(C)n1Cc1ccc(F)cc1`, the Potency is reported as “inactive”.
For `COc1c(C)cc(C(=O)C2CCCN(S(=O)(=O)N(C)C)C2)cc1C` (stereo not given), the Potency was inconclusive [activator, partial curve].
In the case of `Cc1ccc(C)c(Cn2c(C(C)NC(=O)c3ccc(F)cc3)nc3ccccc32)c1` (stereo not given), the Potency is reported as inconclusive [activator, partial curve].
With `O=C(/C=C/c1ccc(Cl)c(Cl)c1)n1cccn1` the Potency was inconclusive [activator, single point].
For `Nc1[nH]c(=S)nc2nc(-c3ccccc3)c(-c3ccccc3)nc12`, the Potency was inconclusive [activator, partial curve].

From PubChem BioAssay AID652104 (National Center for Advancing Translational Sciences (NCATS), 2013)
Potency is the fitted concentration of half-maximal effect; tags give direction and shape of the fitted curve.
